Results taken from PubChem BioAssay AID686979 (National Center for Advancing Translational Sciences (NCATS), 2013).
The whole screen tested about 420,000 compounds, of which about 50,000 (12%) were called active. This list was built around the results that the source calls inconclusive (neither active nor inactive); the mix of calls is not that of the screen. Calls follow the shape of the dose curve; as a rule, active = well fitted inhibition curve with a large enough effect; inconclusive = small, poorly fitted or top-dose-only effect; inactive = flat fitted curve, though single readings scatter. No potency is given beside an inconclusive call; the fits are too rough.

experiment: qHTS for Inhibitors of human tyrosyl-DNA phosphodiesterase 1 (TDP1): qHTS in cells in presence of CPT; conditions: chicken DT40 Tdp1-/-;hTDP1 cells + 20 nM CPT, ATP luminescence, 48 h; activity change, negative = growth inhibition: at 46.2 µM (top of the series) unless noted; also: nearly all actives have a fitted effect of over 55% in size
In short: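 Chicken DT40 Tdp1-/- cells stably complemented with human TDP1 were seeded at 400 cells/well in medium containing 20 nM camptothecin, exposed to pin-transferred compounds, and grown at 37 °C for at least 48 hr. Viability was read as ATP luminescence.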
% is scaled to controls: 0 for no effect and ±100 for the full control effect; potency is read from the fitted curve at half-maximal effect; tags tell the direction and shape of the fitted curve.

Structure (SMILES) | Potency | activity change, negative = growth inhibition
O=C(CN1C(=O)/C(=C\c2ccccc2Cl)Sc2ccccc21)NCCCN1CCOCC1 | inconclusive [inhibitor, single point] | –
Cc1ccc(-c2nnc(-c3cc(C)on3)o2)cc1 | inconclusive [inhibitor, single point] | –
CCc1noc(-c2ccc(N3CCC(C)CC3)c([N+](=O)[O-])c2)n1 | active: 18.4 µM | –
CC(C)(C)NC(=O)C(c1cc2ccccc2o1)n1c(=O)c(-c2ccco2)nc2ccccc21 (centres undefined) | inconclusive [inhibitor, single point] | –
CC1CN(CC(O)COc2ccccc2C(C)(C)C)CC(C)O1 (centres undefined) | inconclusive [inhibitor, partial curve, poor fit] | –
Cc1c(C(=O)N/N=C/c2ccncc2)no[n+]1[O-] | – | inactive: 1.89%
COc1ccc(-n2c(=O)c3c4c(sc3n(CC(=O)Nc3cc(C)[nH]n3)c2=O)CCC4)c(OC)c1 | – | inactive: -24.2%
COc1ccc(C(=O)NCC(=O)NCc2ccncc2)cc1 | – | inactive: -6.12%
COC(=O)c1cn(C(=O)/C=C/c2ccc(OC)c(OC)c2)c2ccccc12 | inconclusive [inhibitor, single point] | –
Cc1cccc(OCCn2c(SCC(N)=O)nc3ccccc32)c1 | inconclusive [inhibitor, single point] | –
Cc1ccc(CNC(=O)C(=O)NCCC2CCCCN2S(=O)(=O)c2ccccc2)cc1 (centres undefined) | inconclusive [inhibitor, single point] | –
Cn1c(=O)c2c(nc(CN3CCCCC3)n2CCc2ccccc2)n(C)c1=O | – | inactive: -14.9%
Cc1ccc(NS(=O)(=O)c2ccc(-n3cccn3)cc2)cc1C | inconclusive [inhibitor, single point] | –
C[C@@H]1CN([C@H](C)CO)C(=O)c2cc(NC(=O)C3CCCCC3)ccc2O[C@@H]1CN(C)Cc1ccncc1 | inconclusive [inhibitor, partial curve, poor fit] | –
O=C(NNC(=S)Nc1ccccc1)c1cc(Br)ccc1Cl | – | inactive: -17.2%
CCc1ccc(CCC(=O)Nc2ccc(C)cc2C)o1 | inconclusive [inhibitor, single point] | –
COc1ccc(/C=C2\SC(=S)N(CC(=O)NC3C=CS(=O)(=O)C3)C2=O)cc1 (centres undefined) | active: 6.51 µM | –
CCC(Sc1nc2cc3c(cc2c(=O)n1CCCCCC(=O)NCc1ccc2c(c1)OCO2)OCO3)C(=O)NCCCOC (centres undefined) | – | inactive: -5.28%
O=C(CCC1CCN(C(=O)c2cncs2)CC1)Nc1ccccc1 | – | inactive: -11.6%
c1cc(Nc2ncnc3sc4c(c23)CCC4)ccn1 | inconclusive [inhibitor, single point] | –
Cn1cccc1Cc1nnc(SCC(=O)NCC2CCCO2)n1C (centres undefined) | inconclusive [inhibitor, single point] | –
Cc1ccccc1NC(=O)CN1CCC(C(=O)c2ccc3c(c2)OCCO3)CC1 | inconclusive [inhibitor, single point] | –

Structure (SMILES) | Potency | activity change, negative = growth inhibition
COc1ccc(CCNC(=O)C(=O)NCC(c2ccco2)S(=O)(=O)c2cccs2)cc1 (centres undefined) | active: 13 µM | –
O=C(NCCN1C(=O)S/C(=C/c2cccnc2)C1=O)c1cccs1 | inconclusive [inhibitor, partial curve, poor fit] | –
Cc1ccc(-c2cc(C(=O)NCCCN3CCOCC3)no2)cc1 | inconclusive [inhibitor, partial curve, poor fit] | –
CCn1cc(C(=O)OCC(=O)c2cc(C)n(-c3ccccc3F)c2C)c(=O)c2ccc(C)nc21 | inconclusive [inhibitor, single point] | –
O=C(N/N=C/c1cccs1)C(=O)Nc1cccc(Cl)c1 | – | inactive: 0.242%
Cc1ccccc1NC(=S)N(Cc1ccco1)C(C)c1cccs1 (centres undefined) | inconclusive [inhibitor, single point] | –
OC1(c2ccc(Br)cc2)CCNCC1 | inconclusive [inhibitor, partial curve, poor fit] | –
Cc1nccn1CC(O)Cn1c2ccccc2c2ccccc21 (centres undefined) | inconclusive [inhibitor, partial curve] | –
O=C(NC(=S)N(CCO)Cc1ccccc1)c1ccc(F)cc1Cl | – | inactive: 3.24%
COc1cc2c(C(=O)N3CCN(c4cccc(Cl)c4)CC3)cn(C)c(=O)c2cc1OC | active: 5.17 µM | –
COc1cc(NC(=O)CC(C)S(=O)(=O)c2cc3c(cc2C)NC(=O)CO3)cc(OC)c1OC (centres undefined) | – | inactive: -3.63%
CCOC(=O)c1sc(NC(=O)CSc2nnc(Cc3ccccc3)o2)c(C(=O)OCC)c1C | inconclusive [inhibitor, single point] | –
CCOC(=O)c1cc2c(nc1C)-c1cc(Cl)cc(Cl)c1OC2O (centres undefined) | inconclusive [inhibitor, partial curve, poor fit] | –
O=C(Nc1cccc(Br)c1)Nc1nc2c(s1)CCCCCC2 | active: 7.31 µM | –
O=S(=O)(Cc1nnnn1-c1ccc(Br)cc1)c1ccccc1 | – | inactive: -12.3%
CC(=O)Nc1ccc(S(=O)(=O)NCC(=O)OCC(=O)Nc2sccc2C(N)=O)cc1 | – | inconclusive: -11.6% [inhibitor]
COc1cc(CN2CC(=O)N(c3cc(Cl)ccc3C)C2=S)cc(OC)c1OC | active: 20.6 µM | –
Cc1ccc(C(=O)N/C(=C/c2ccccc2F)C(=O)NCCCn2ccnc2)cc1 | inconclusive [inhibitor, single point] | –
COc1ccc(NC(=O)c2cnc(N3CCOCC3)c3ccccc23)cc1OC | inconclusive [inhibitor, single point] | –
Cc1cccn2c(=O)c3cc(C(=O)NCC4CCCO4)c(=N)n(Cc4ccc(F)cc4)c3nc12 (centres undefined) | inconclusive [inhibitor, single point] | –
COCCNC(=O)CSc1nc2ccc(N3CCOCC3)cc2c(=O)n1CCc1ccccc1 | – | inconclusive: -32.6% [inhibitor]
Cc1cc(C(=O)NCc2nnc3n2CCN(Cc2ccc4c(c2)Cc2ccccc2-4)CC3)c(C)o1 | inconclusive [inhibitor, single point] | –
